Cytotoxicity call and growth inhibition call data for 26 compounds are collected here from the antibiotic and cytotoxicity screens of Wong et al. (2023).

The list shows a part of the results.

One test relates to HSkMC. Briefly: cytotoxicity call (relative viability < 0.9). The conditions noted are these: 10 µM.
Another test relates to HepG2. Briefly: cytotoxicity call (relative viability < 0.9). To be noted: 10 µM.
A further test has as its system S. aureus RN4220. Briefly: growth inhibition call (relative growth <= 0.2). To be noted: 50 µM.

As to `C[C@@H]1CN([C@@H](C)CO)C(=O)c2cc(NC(=O)Cn3cnnn3)ccc2O[C@@H]1CN(C)Cc1ccc(Cl)c(Cl)c1`, the cytotoxicity call in the test with HSkMC and with HepG2 was “inactive” throughout. Besides, the growth inhibition call in the test on S. aureus RN4220 was “inactive”.

As for `O=C(CNCCO)Nc1ccc(F)c(Cl)c1`, the cytotoxicity call with HSkMC and in the test on HepG2 was “inactive” each time. The growth inhibition call with S. aureus RN4220 is “inactive”.

As for `COc1cc(CN2CCC(C(=O)N[C@@H](c3ccc(-c4ccccc4)cc3)c3cnccn3)CC2)cc(OC)c1`, the cytotoxicity call in the test on HSkMC was “inactive”. Besides, in the test with HepG2, the cytotoxicity call was “active”. Besides, the growth inhibition call in the test on S. aureus RN4220 was “inactive”.

`COc1ccc(S(=O)(=O)N(C)C[C@H]2Oc3ccc(NS(=O)(=O)c4ccc(C)cc4)cc3CC(=O)N([C@@H](C)CO)C[C@@H]2C)cc1`: the cytotoxicity call in the test on HSkMC and in the test on HepG2 was “inactive” each time. Also, in the test with S. aureus RN4220, the growth inhibition call is “inactive”.

Take `CC(C)NC(=O)Nc1ccc2c(c1)C(=O)N([C@@H](C)CO)C[C@@H](C)[C@@H](CN(C)C(=O)Nc1ccc3c(c1)OCO3)O2`: the cytotoxicity call with HSkMC and with HepG2 was “inactive” throughout. Further, the growth inhibition call in the test with S. aureus RN4220 was “inactive”.

On to `CC[C@@](N)(C(=O)O)c1ccccc1`, for which the cytotoxicity call with HSkMC and in the test with HepG2 was “inactive” in each case. Besides, the growth inhibition call with S. aureus RN4220 is “inactive”.

As to `O=C(C[C@@H]1CC[C@H]2[C@@H](COC[C@@H](O)CN2C(=O)Nc2ccc3c(c2)OCO3)O1)N1CCN(c2ccccc2)CC1`, the cytotoxicity call with HSkMC and in the test on HepG2 was “inactive” throughout. Besides, in the test on S. aureus RN4220, the growth inhibition call is “inactive”.

For the compound `C[C@H](CO)N1C[C@H](C)[C@@H](CN(C)C(=O)Nc2cccc3ccccc23)Oc2ccc(NC(=O)Nc3ccc(F)cc3)cc2C1=O`, the cytotoxicity call in the test on HSkMC and in the test with HepG2 was “inactive” in each case. Further, in the test with S. aureus RN4220, the growth inhibition call is “inactive”.

In the case of `C[C@@H]1CN([C@@H](C)CO)C(=O)c2cccc(NS(=O)(=O)c3ccc(F)cc3)c2O[C@H]1CN(C)CC1CC1`, the cytotoxicity call in the test with HSkMC and with HepG2 was “inactive” throughout. In addition, in the test on S. aureus RN4220, the growth inhibition call was “inactive”.

As to `Cc1noc(C)c1NC(=O)Nc1ccc2c(c1)C(=O)N([C@@H](C)CO)C[C@@H](C)[C@H](CN(C)Cc1ccc(C(=O)O)cc1)OCCCC[C@@H](C)O2`, the cytotoxicity call in the test with HSkMC and in the test with HepG2 was “inactive” throughout. In addition, the growth inhibition call with S. aureus RN4220 is “inactive”.

As to `CC1=C(CC(=O)O)c2cc(F)ccc2C1=Cc1ccc(S(C)=O)cc1` (stereo not drawn), the cytotoxicity call in the test on HSkMC and in the test on HepG2 was “inactive” each time. Also, the growth inhibition call in the test with S. aureus RN4220 is “inactive”.

For `C[C@@H]1ON(c2ccc(C(=O)OC(C)(C)C)cc2)[C@H](c2ccc(O)cc2)[C@H]1C(=O)N1C(=O)OC[C@H]1Cc1ccccc1`, the cytotoxicity call in the test with HSkMC and with HepG2 was “inactive” throughout. Further, the growth inhibition call with S. aureus RN4220 was “inactive”.

As for `CC=Cc1ccc2n(c1=O)C[C@@H]1[C@@H](CO)[C@H](C(=O)NCCc3cn(C)cn3)[C@H]2N1C(=O)CC`, the cytotoxicity call in the test on HSkMC and in the test with HepG2 was “inactive” in each case. Also, the growth inhibition call in the test with S. aureus RN4220 was “inactive”.

As for `Cc1occc(=O)c1O`, the cytotoxicity call with HSkMC and in the test on HepG2 was “inactive” each time. Also, the growth inhibition call with S. aureus RN4220 was “inactive”.

Regarding `COc1ccc(NC(=O)N(C)C[C@H]2OCCCC[C@H](C)Oc3ccc(NC(=O)NC(C)C)cc3C(=O)N([C@@H](C)CO)C[C@@H]2C)cc1`, the cytotoxicity call in the test on HSkMC and in the test on HepG2 was “inactive” throughout. Also, the growth inhibition call in the test with S. aureus RN4220 is “inactive”.

In the case of `CC(C)NCC(O)c1cc(O)cc(O)c1` (stereo not drawn), in the test on HSkMC, the cytotoxicity call was “inactive”. The cytotoxicity call in the test with HepG2 was “active”. In the test on S. aureus RN4220, the growth inhibition call is “inactive”.

Take `C[C@@H]1CN([C@@H](C)CO)C(=O)Cc2cc(NC(=O)CCN3CCOCC3)ccc2O[C@H]1CN(C)C(=O)Nc1ccc(F)cc1`: the cytotoxicity call in the test on HSkMC and with HepG2 was “inactive” throughout. For the same compound, the growth inhibition call with S. aureus RN4220 is “inactive”.

For `Cc1ccc(S(=O)(=O)Nc2ccc3c(c2)C(=O)N([C@H](C)CO)C[C@H](C)[C@H](CN(C)Cc2ccccc2)OCCCC[C@H](C)O3)cc1`, the cytotoxicity call with HSkMC and in the test with HepG2 was “inactive” throughout. Further, the growth inhibition call in the test on S. aureus RN4220 was “inactive”.

Turning to `Cc1noc(C)c1NC(=O)Nc1ccc2c(c1)CC(=O)N([C@H](C)CO)C[C@H](C)[C@@H](CN(C)Cc1ccc(C(=O)Nc3ccccc3N)cc1)O2`, the cytotoxicity call in the test on HSkMC and in the test with HepG2 was “inactive” in each case. Besides, the growth inhibition call in the test on S. aureus RN4220 is “inactive”.

`CN(CC(=O)Nc1ccccc1)S(C)(=O)=O`: the cytotoxicity call in the test with HSkMC and in the test with HepG2 was “inactive” throughout. Moreover, the growth inhibition call with S. aureus RN4220 is “inactive”.

On to `Cc1noc(C)c1NC(=O)Nc1ccc2c(c1)C(=O)N([C@@H](C)CO)C[C@@H](C)[C@H](CN(C)C(=O)Nc1ccc(C(F)(F)F)cc1)OCCCC[C@H](C)O2`, for which the cytotoxicity call in the test on HSkMC and in the test on HepG2 was “inactive” each time. The growth inhibition call with S. aureus RN4220 was “inactive”.

Regarding `C[C@@H]1CN([C@@H](C)CO)C(=O)c2cc(NS(=O)(=O)c3ccccc3)ccc2O[C@@H](C)CCCCO[C@H]1CN(C)C(=O)Nc1cccc2ccccc12`, in the test on HSkMC, the cytotoxicity call is “inactive”. In addition, in the test with HepG2, the cytotoxicity call is “active”. Moreover, in the test with S. aureus RN4220, the growth inhibition call was “inactive”.

Regarding `Cc1ccc(S(=O)(=O)Nc2ccc3c(c2)C(=O)N([C@H](C)CO)C[C@H](C)[C@H](CN(C)S(=O)(=O)c2ccc(C)cc2)OCCCC[C@@H](C)O3)cc1`, the cytotoxicity call with HSkMC and in the test with HepG2 was “inactive” throughout. Moreover, in the test on S. aureus RN4220, the growth inhibition call was “inactive”.

For `C[C@H](CO)N1C[C@H](C)[C@H](CN(C)CC2CCCCC2)Oc2ccc(NC(=O)Cc3cn(C)c4ccccc34)cc2C1=O`, the cytotoxicity call in the test on HSkMC (human skeletal muscle cells) and in the test with HepG2 was “inactive” in each case. For the same compound, the growth inhibition call with S. aureus RN4220 is “inactive”.

Take `CS(=O)(=O)N1CCS(=O)(=O)[C@H]2CCN(CC3CC3)CC[C@@H]21`: the cytotoxicity call in the test with HSkMC and with HepG2 was “inactive” throughout. In addition, in the test with S. aureus RN4220, the growth inhibition call was “inactive”.

Take `Cc1ccc(S[C@]2(C(=O)NCCN3CCOCC3)CC(=O)N(Cc3ccccc3Cl)[C@@H]2c2ccc(CO)cc2I)cc1`: the cytotoxicity call in the test with HSkMC and with HepG2 was “inactive” in each case. Further, in the test with S. aureus RN4220, the growth inhibition call is “inactive”.
